Test results from the supplement of paper PMC8728848.
This is one part of the list.

How the values were obtained:
Test in all cases: glycan array binding signal (z-score within array); higher = stronger binding
Details in all cases: glycan notation: IUPAC condensed, linker removed
[1] = target: Fuc(a1-2)[GalNAc(a1-3)]Gal(b1-4)[Fuc(a1-3)]GlcNAc
In short: (§1)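 Glycan array binding is given as a within-array Z-score, which can be read as non-binding when negative. The arrays, 3228 of them, came from the Consortium for Functional Glycomics database and were retained only where the protein sequence was available. Z-scores were averaged across arrays of the same protein sequence at different concentrations or buffers and across linkers.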

[2] = target: Fuc(a1-2)[GalNAc(a1-4)]Gal(b1-4)GlcNAc
In short: as §1

[3] = target: Fuc(a1-3)GlcNAc
In short: as §1

[4] = target: Fuc(a1-3)[Gal(b1-4)]Glc6S
In short: as §1

[5] = target: Fuc(a1-3)[Gal(b1-4)]GlcNAc
In short: as §1

[6] = target: Fuc(a1-3)[Gal(b1-4)]GlcNAc(b1-3)Gal(b1-3)[Fuc(a1-4)]GlcNAc
In short: as §1

[7] = target: Fuc(a1-3)[Gal(b1-4)]GlcNAc(b1-4)Gal(b1-4)[Fuc(a1-3)]GlcNAc
In short: as §1

[8] = target: Fuc(a1-3)[Gal(b1-4)]GlcNAc(b1-4)Gal(b1-4)[Fuc(a1-3)]GlcNAc(b1-4)Gal(b1-4)[Fuc(a1-3)]GlcNAc
In short: as §1

[9] = target: Fuc(a1-3)[Gal(b1-4)]GlcNAc6S
In short: as §1

[10] = target: Fuc(a1-3)[Gal3S(b1-4)]Glc
In short: as §1

[11] = target: Fuc(a1-3)[Gal3S(b1-4)]Glc6S
In short: as §1

[12] = target: Fuc(a1-3)[Gal3S(b1-4)]GlcNAc
In short: as §1

[13] = target: Fuc(a1-3)[Gal3S(b1-4)]GlcNAc6S
In short: as §1

[14] = target: Fuc(a1-3)[GalNAc(b1-4)]Gal(b1-4)GlcNAc
In short: as §1

[15] = target: Fuc(a1-4)GlcNAc
In short: as §1

[16] = target: Fuc(b1-3)GlcNAc
In short: as §1

[17] = target: Gal(a1-2)Gal
In short: as §1

[18] = target: Gal(a1-3)Gal
In short: as §1

[19] = target: Gal(a1-3)Gal(b1-3)Glc
In short: as §1

[20] = target: Gal(a1-3)Gal(b1-3)GlcNAc
In short: as §1

[21] = target: Gal(a1-3)Gal(b1-4)GlcNAc
In short: as §1

[22] = target: Gal(a1-3)Gal(b1-4)[Fuc(a1-3)]GalNAc
In short: as §1

[23] = target: Gal(a1-3)GlcNAc
In short: as §1

[24] = target: Gal(a1-3)[Gal(a1-4)]Gal(b1-4)GlcNAc
In short: as §1

[25] = target: Gal(a1-4)Gal(b1-4)Gal
In short: as §1

[26] = target: Gal(a1-4)Gal(b1-4)GalNAc
In short: as §1

[27] = target: Gal(a1-4)GlcNAc
In short: as §1

[28] = target: Gal(a1-6)Glc
In short: as §1

[29] = target: Gal(b1-2)Gal
In short: as §1

[30] = target: Gal(b1-3)Gal
In short: as §1

[31] = target: Gal(b1-3)GalNAc
In short: as §1

[32] = target: Gal(b1-3)GalNAc(b1-3)Gal(a1-4)Gal(b1-4)Glc
In short: as §1

[33] = target: Gal(b1-3)GalNAc(b1-3)Gal(b1-4)Glc
In short: as §1

[34] = target: Gal(b1-3)GalNAc(b1-3)Gal(b1-4)GlcNAc
In short: as §1

[35] = target: Gal(b1-3)GalNAc(b1-4)Gal(b1-4)Glc
In short: as §1

[36] = target: Gal(b1-3)GalNAc(b1-4)[Neu5Ac(a2-3)]Gal(b1-4)Glc
In short: as §1

[37] = target: Gal(b1-3)GlcNAc(b1-3)Gal(b1-3)GlcNAc
In short: as §1

[38] = target: Gal(b1-3)[Fuc(a1-4)]GlcNAc
In short: as §1

[39] = target: Gal(b1-3)[Fuc(a1-4)]GlcNAc(b1-3)Gal(b1-3)[Fuc(a1-4)]GlcNAc
In short: as §1

[40] = target: Gal(b1-3)[Fuc(a1-4)]GlcNAc(b1-3)Gal(b1-4)GlcNAc
In short: as §1

[41] = target: Gal(b1-3)[Fuc(a1-4)]GlcNAc(b1-3)Gal(b1-4)[Fuc(a1-3)]GlcNAc
In short: as §1

[42] = target: Gal(b1-3)[GlcNAc(b1-6)]GalNAc
In short: as §1

[43] = target: Gal(b1-3)[GlcNAc(b1-6)]GlcNAc
In short: as §1

[44] = target: Gal(b1-3)[Neu5Ac(a2-6)]GalNAc
In short: as §1

[45] = target: Gal(b1-3)[Neu5Ac(a2-6)]GlcNAc
In short: as §1

B1: Annexin-A1 (Mus musculus), P10107 (protein)
chain: MAMVSEFLKQARFLENQEQEYVQAVKSYKGGPGSAVSPYPSFNVSSDVAALHKAIMVKGVDEATIIDILTKRTNAQRQQIKAAYLQENGKPLDEVLRKALTGHLEEVVLAMLKTPAQFDADELRGAMKGLGTDEDTLIEILTTRSNEQIREINRVYREELKRDLAKDITSDTSGDFRKALLALAKGDRCQDLSVNQDLADTDARALYEAGERRKGTDVNVFTTILTSRSFPHLRRVFQNYGKYSQHDMNKALDLELKGDIEKCLTTIVKCATSTPAFFAEKLYEAMKGAGTRHKALIRIMVSRSEIDMNEIKVFYQKKYGISLCQAILDETKGDYEKILVALCGGN
For B1, the “glycan array binding signal (z-score)” value [1] was -0.423, the “glycan array binding signal (z-score)” value [2] was -0.458 and the “glycan array binding signal (z-score)” value [3] was -0.581. The “glycan array binding signal (z-score)” value [4] was -0.369, the “glycan array binding signal (z-score)” value [5] was -0.288 and the “glycan array binding signal (z-score)” value [6] was 0.388. The “glycan array binding signal (z-score)” value [7] was -0.418, the “glycan array binding signal (z-score)” value [8] was -0.486 and the “glycan array binding signal (z-score)” value [9] was -0.304. For the same binder, the “glycan array binding signal (z-score)” value [10] was -0.177, the “glycan array binding signal (z-score)” value [11] was 1.11 and the “glycan array binding signal (z-score)” value [12] was -0.087. For the same binder, the “glycan array binding signal (z-score)” value [13] was 1.69, the “glycan array binding signal (z-score)” value [14] was -0.444 and the “glycan array binding signal (z-score)” value [15] was -0.485. For the same binder, the “glycan array binding signal (z-score)” value [16] was -0.455, the “glycan array binding signal (z-score)” value [17] was 0.257 and the “glycan array binding signal (z-score)” value [18] was 0.339. For the same binder, the “glycan array binding signal (z-score)” value [19] was 0.066, the “glycan array binding signal (z-score)” value [20] was 0.062 and the “glycan array binding signal (z-score)” value [21] was 0.064. The “glycan array binding signal (z-score)” value [22] was -0.256, the “glycan array binding signal (z-score)” value [23] was -0.249 and the “glycan array binding signal (z-score)” value [24] was -0.43. The “glycan array binding signal (z-score)” value [25] was 0.574, the “glycan array binding signal (z-score)” value [26] was 0.06 and the “glycan array binding signal (z-score)” value [27] was -0.321. For the same binder, the “glycan array binding signal (z-score)” value [28] was 1.29, the “glycan array binding signal (z-score)” value [29] was 0.027 and the “glycan array binding signal (z-score)” value [30] was 0.003. The “glycan array binding signal (z-score)” value [31] was 0.031, the “glycan array binding signal (z-score)” value [32] was -0.331 and the “glycan array binding signal (z-score)” value [33] was -0.151. The “glycan array binding signal (z-score)” value [34] was -0.629, the “glycan array binding signal (z-score)” value [35] was -0.032 and the “glycan array binding signal (z-score)” value [36] was -0.32. The “glycan array binding signal (z-score)” value [37] was -0.355, the “glycan array binding signal (z-score)” value [38] was -0.466 and the “glycan array binding signal (z-score)” value [39] was 0.133. The “glycan array binding signal (z-score)” value [40] was -0.728, the “glycan array binding signal (z-score)” value [41] was -0.729 and the “glycan array binding signal (z-score)” value [42] was -0.488. For the same binder, the “glycan array binding signal (z-score)” value [43] was -0.262, the “glycan array binding signal (z-score)” value [44] was -0.343 and the “glycan array binding signal (z-score)” value [45] was -0.592.
